For two molecules, GI50 and TGI results are on record in PubChem BioAssay (NCI).

The structures appear in SMILES notation.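 96-well plates; 48 h exposure; 5 concentrations. Endpoints by linear interpolation between flanking doses. Not reached: highest tested concentration assigned. At the GI50, growth is halved. Definition used: TGI = concentration required for complete inhibition of growth.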

The assay relates to NCI-H322M lung. The experiment in a line: inhibition of tumour cell growth, NCI panel, 48 h.

With `COc1ccc2[nH]cc(-c3cc(N)n4nc(-c5cn(C)c6ccccc56)cc4n3)c2c1`, the GI50 was 1.58 µM and the TGI came out at 3.11 µM.
The corresponding values for `C#CCNC(=O)CCC(=O)OC[C@]12CC[C@@H](C(=C)C)[C@@H]1C1CC[C@@H]3[C@@]4(C)CCCNC(C)(C)[C@@H]4CC[C@@]3(C)[C@]1(C)CC2` (some centres undefined) are 9.59 µM and 18.1 µM.
